# Some of the results follow.
# B1: LFA (Limax flavus) (protein)
# chain: MSVLFLAASFLLLASFELVAAQGCPRQDPGDWIVIQRRLNADVNFYRGWADYKHGFGDLRCNFWLGNEKIHQLTSHGRYKLRVEFTFNNKSYFAEYSTFKILGEADKYKLQVGGYSGNAGDALTFHNGMAFSTNDRDNDADSIDCAKVYHGAWWYKTCHESNLNGKWGSKKYGEGLNWKAKTTFTATATSSLLKIKALK
# Legend:
# Experiment in all cases: glycan array binding signal (z-score within array); higher = stronger binding
# Details in all cases: glycan notation: IUPAC condensed, linker removed
# [1] = molecular target: Fuc(a1-2)Gal(b1-4)[Fuc(a1-3)]GlcNAc
# In short: (§1)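 Columns mapping to the same glycan were averaged after glycan names were converted to IUPAC-condensed notation. The data come from 3228 arrays in the Consortium for Functional Glycomics database, limited to those with an available protein sequence. Binding is reported as a within-array Z-score averaged across arrays of one protein sequence and across linkers.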
# [2] = molecular target: Fuc(a1-2)Gal(b1-4)[Fuc(a1-3)]GlcNAc(b1-2)Man(a1-3)[Fuc(a1-2)Gal(b1-4)[Fuc(a1-3)]GlcNAc(b1-2)Man(a1-6)]Man(b1-4)GlcNAc(b1-4)[Fuc(a1-6)]GlcNAc
# In short: as §1
# [3] = molecular target: Fuc(a1-2)Gal(b1-4)[Fuc(a1-3)]GlcNAc(b1-2)[Fuc(a1-2)Gal(b1-4)[Fuc(a1-3)]GlcNAc(b1-4)]Man(a1-3)[Fuc(a1-2)Gal(b1-4)[Fuc(a1-3)]GlcNAc(b1-2)Man(a1-6)]Man(b1-4)GlcNAc(b1-4)GlcNAc
# In short: as §1
# [4] = molecular target: Fuc(a1-2)Gal(b1-4)[Fuc(a1-3)]GlcNAc(b1-3)Gal(b1-4)[Fuc(a1-3)]GlcNAc
# In short: as §1
# [5] = molecular target: Fuc(a1-2)Gal(b1-4)[Fuc(a1-3)]GlcNAc(b1-3)Gal(b1-4)[Fuc(a1-3)]GlcNAc(b1-3)Gal(b1-4)[Fuc(a1-3)]GlcNAc
# In short: as §1
# [6] = molecular target: Fuc(a1-2)Gal(b1-4)[Fuc(a1-3)]GlcNAc(b1-3)GalNAc
# In short: as §1
# [7] = molecular target: Fuc(a1-2)Gal(b1-4)[Fuc(a1-3)]GlcNAc(b1-3)[Neu5Ac(a2-6)Gal(b1-4)GlcNAc(b1-6)]Gal(b1-4)Glc
# In short: as §1
# [8] = molecular target: Fuc(a1-2)Gal3S(b1-4)GlcNAc
# In short: as §1
# [9] = molecular target: Fuc(a1-2)Gal6S(b1-3)GlcNAc
# In short: as §1
# [10] = molecular target: Fuc(a1-2)Gal6S(b1-3)GlcNAc6S
# In short: as §1
# Fuc(a1-2)Gal6S(b1-4)Glc = molecular target: Fuc(a1-2)Gal6S(b1-4)Glc
# In short: as §1
# [11] = molecular target: Fuc(a1-2)Gal6S(b1-4)Glc6S
# In short: as §1
# Fuc(a1-2)[Gal(a1-3)]Gal = molecular target: Fuc(a1-2)[Gal(a1-3)]Gal
# In short: as §1
# [12] = molecular target: Fuc(a1-2)[Gal(a1-3)]Gal(b1-3)GalNAc
# In short: as §1
# [13] = molecular target: Fuc(a1-2)[Gal(a1-3)]Gal(b1-3)GalNAc(b1-3)Gal(a1-4)Gal(b1-4)Glc
# In short: as §1
# [14] = molecular target: Fuc(a1-2)[Gal(a1-3)]Gal(b1-3)GlcNAc
# In short: as §1
# [15] = molecular target: Fuc(a1-2)[Gal(a1-3)]Gal(b1-3)GlcNAc(b1-2)Man(a1-3)[Fuc(a1-2)[Gal(a1-3)]Gal(b1-3)GlcNAc(b1-2)Man(a1-6)]Man(b1-4)GlcNAc(b1-4)GlcNAc
# In short: as §1
# [16] = molecular target: Fuc(a1-2)[Gal(a1-3)]Gal(b1-3)GlcNAc(b1-2)Man(a1-3)[Fuc(a1-2)[Gal(a1-3)]Gal(b1-3)GlcNAc(b1-2)Man(a1-6)]Man(b1-4)GlcNAc(b1-4)[Fuc(a1-6)]GlcNAc
# In short: as §1
# [17] = molecular target: Fuc(a1-2)[Gal(a1-3)]Gal(b1-3)GlcNAc(b1-3)GalNAc
# In short: as §1
# [18] = molecular target: Fuc(a1-2)[Gal(a1-3)]Gal(b1-3)GlcNAc(b1-6)GalNAc
# In short: as §1
# [19] = molecular target: Fuc(a1-2)[Gal(a1-3)]Gal(b1-4)Glc
# In short: as §1
# [20] = molecular target: Fuc(a1-2)[Gal(a1-3)]Gal(b1-4)GlcNAc
# In short: as §1
# [21] = molecular target: Fuc(a1-2)[Gal(a1-3)]Gal(b1-4)GlcNAc(b1-2)Man
# In short: as §1
# [22] = molecular target: Fuc(a1-2)[Gal(a1-3)]Gal(b1-4)GlcNAc(b1-2)Man(a1-3)[Fuc(a1-2)[Gal(a1-3)]Gal(b1-4)GlcNAc(b1-2)Man(a1-6)]Man(b1-4)GlcNAc(b1-4)GlcNAc
# In short: as §1
# [23] = molecular target: Fuc(a1-2)[Gal(a1-3)]Gal(b1-4)GlcNAc(b1-2)Man(a1-3)[Fuc(a1-2)[Gal(a1-3)]Gal(b1-4)GlcNAc(b1-2)Man(a1-6)]Man(b1-4)GlcNAc(b1-4)[Fuc(a1-6)]GlcNAc
# In short: as §1
# [24] = molecular target: Fuc(a1-2)[Gal(a1-3)]Gal(b1-4)GlcNAc(b1-3)GalNAc
# In short: as §1
# [25] = molecular target: Fuc(a1-2)[Gal(a1-3)]Gal(b1-4)GlcNAc(b1-3)[Fuc(a1-2)[Gal(a1-3)]Gal(b1-4)GlcNAc(b1-6)]GalNAc
# In short: as §1
# [26] = molecular target: Fuc(a1-2)[Gal(a1-3)]Gal(b1-4)GlcNAc(b1-6)GalNAc
# In short: as §1
# [27] = molecular target: Fuc(a1-2)[Gal(a1-3)]Gal(b1-4)[Fuc(a1-3)]Glc
# In short: as §1
# [28] = molecular target: Fuc(a1-2)[Gal(a1-3)]Gal(b1-4)[Fuc(a1-3)]GlcNAc
# In short: as §1
# [29] = molecular target: Fuc(a1-2)[Gal(a1-3)]Gal(b1-4)[Fuc(a1-3)]GlcNAc(b1-3)GalNAc
# In short: as §1
# [30] = molecular target: Fuc(a1-2)[Gal(a1-4)]Gal(b1-4)GlcNAc
# In short: as §1
# [31] = molecular target: Fuc(a1-2)[GalNAc(a1-3)]Gal
# In short: as §1
# [32] = molecular target: Fuc(a1-2)[GalNAc(a1-3)]Gal(b1-3)GalNAc(a1-3)[Fuc(a1-2)]Gal(b1-4)GlcNAc
# In short: as §1
# [33] = molecular target: Fuc(a1-2)[GalNAc(a1-3)]Gal(b1-3)GalNAc(b1-3)Gal(a1-4)Gal(b1-4)Glc
# In short: as §1
# [34] = molecular target: Fuc(a1-2)[GalNAc(a1-3)]Gal(b1-3)GlcNAc
# In short: as §1
# [35] = molecular target: Fuc(a1-2)[GalNAc(a1-3)]Gal(b1-3)GlcNAc(b1-2)Man(a1-3)[Fuc(a1-2)[GalNAc(a1-3)]Gal(b1-3)GlcNAc(b1-2)Man(a1-6)]Man(b1-4)GlcNAc(b1-4)GlcNAc
# In short: as §1
# [36] = molecular target: Fuc(a1-2)[GalNAc(a1-3)]Gal(b1-3)GlcNAc(b1-2)Man(a1-3)[Fuc(a1-2)[GalNAc(a1-3)]Gal(b1-3)GlcNAc(b1-2)Man(a1-6)]Man(b1-4)GlcNAc(b1-4)[Fuc(a1-6)]GlcNAc
# In short: as §1
binder,measurement,setting,value
B1,glycan array binding signal (z-score),[1],-0.201
same,glycan array binding signal (z-score),[2],-0.216
same,glycan array binding signal (z-score),[3],0.408
same,glycan array binding signal (z-score),[4],-0.189
same,glycan array binding signal (z-score),[5],-0.241
same,glycan array binding signal (z-score),[6],-0.161
same,glycan array binding signal (z-score),[7],-0.17
same,glycan array binding signal (z-score),[8],-0.304
same,glycan array binding signal (z-score),[9],-0.302
same,glycan array binding signal (z-score),[10],0.063
same,glycan array binding signal (z-score),Fuc(a1-2)Gal6S(b1-4)Glc,-0.252
same,glycan array binding signal (z-score),[11],-0.273
same,glycan array binding signal (z-score),Fuc(a1-2)[Gal(a1-3)]Gal,-0.258
same,glycan array binding signal (z-score),[12],-0.267
same,glycan array binding signal (z-score),[13],-0.323
same,glycan array binding signal (z-score),[14],0.004
same,glycan array binding signal (z-score),[15],-0.303
same,glycan array binding signal (z-score),[16],0.041
same,glycan array binding signal (z-score),[17],-0.31
same,glycan array binding signal (z-score),[18],-0.214
same,glycan array binding signal (z-score),[19],-0.275
same,glycan array binding signal (z-score),[20],-0.295
same,glycan array binding signal (z-score),[21],-0.312
same,glycan array binding signal (z-score),[22],-0.101
same,glycan array binding signal (z-score),[23],-0.189
same,glycan array binding signal (z-score),[24],0.613
same,glycan array binding signal (z-score),[25],-0.303
same,glycan array binding signal (z-score),[26],-0.194
same,glycan array binding signal (z-score),[27],-0.228
same,glycan array binding signal (z-score),[28],-0.137
same,glycan array binding signal (z-score),[29],-0.227
same,glycan array binding signal (z-score),[30],-0.374
same,glycan array binding signal (z-score),[31],-0.178
same,glycan array binding signal (z-score),[32],-0.315
same,glycan array binding signal (z-score),[33],-0.325
same,glycan array binding signal (z-score),[34],-0.058
same,glycan array binding signal (z-score),[35],-0.282
same,glycan array binding signal (z-score),[36],0.209

# Reference: the supplement of paper PMC8728848
